Experimental data as given in the BET-seq Pho4 binding data (Le et al. 2018).
Some of the results follow. Values were computed here from the reads of four pooled replicates and scatter widely.

Target: T1, Pho4 (S. cerevisiae) (UniProt P07270)
T1 sequence: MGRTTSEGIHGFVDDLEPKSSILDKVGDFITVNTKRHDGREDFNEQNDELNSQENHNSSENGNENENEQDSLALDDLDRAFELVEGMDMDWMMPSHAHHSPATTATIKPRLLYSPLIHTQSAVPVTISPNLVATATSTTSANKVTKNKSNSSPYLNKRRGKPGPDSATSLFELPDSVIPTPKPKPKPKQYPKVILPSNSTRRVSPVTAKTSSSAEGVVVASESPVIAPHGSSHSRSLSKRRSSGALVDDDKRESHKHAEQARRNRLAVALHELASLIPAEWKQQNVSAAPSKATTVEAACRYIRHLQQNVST
Assay: relative binding free energy (BET-seq); higher = weaker binding
Conditions: reference: library average

Sequence | relative binding free energy
AGGGTCACGTGATGAG | 0.19 kcal/mol
TGTTTCACGTGGGCCA | 0.03 kcal/mol
TGCTGCACGTGGTCTG | -0.12 kcal/mol
TGTGCCACGTGTGTGT | 0.04 kcal/mol
CGAGTCACGTGCGGGG | -0.05 kcal/mol
TCGGTCACGTGCATTT | 0.19 kcal/mol
ATACGCACGTGCAGGG | 0 kcal/mol
TGGCGCACGTGTTGAA | 0.1 kcal/mol
TAGAGCACGTGTAATT | 0.16 kcal/mol
AGAGCCACGTGGGGGC | -0.28 kcal/mol
GGTAACACGTGCTGTG | -0.17 kcal/mol
CGATTCACGTGATTGG | 0.34 kcal/mol
TCTTTCACGTGGTTGA | 0.21 kcal/mol
CTAGGCACGTGATTGT | -0.05 kcal/mol
GAGTGCACGTGTATTT | 0.06 kcal/mol
AGATGCACGTGTATTG | -0.05 kcal/mol
CGATGCACGTGTAGTG | -0.05 kcal/mol
TATGCCACGTGGCAGG | -0.14 kcal/mol
ATGGTCACGTGACGTG | 0.32 kcal/mol
AGGGTCACGTGGTCAG | 0.12 kcal/mol
AGGCGCACGTGTTGGG | -0.1 kcal/mol

Sequence | relative binding free energy
AGATTCACGTGAGTAG | 0.37 kcal/mol
AGAAGCACGTGTGTGG | -0.12 kcal/mol
GTTTTCACGTGAATAG | 0.43 kcal/mol
ATAAGCACGTGGATTG | -0.04 kcal/mol
TGAAGCACGTGCGAGG | -0.12 kcal/mol
TGCATCACGTGCGGGG | 0.01 kcal/mol
TGTACCACGTGTTGGG | -0.08 kcal/mol
GAAGGCACGTGAGGTA | 0.07 kcal/mol
GTGTTCACGTGAATAG | 0.48 kcal/mol
TAGAGCACGTGATTAG | -0.05 kcal/mol
CAAATCACGTGGGGGG | 0.07 kcal/mol
AGTCTCACGTGTAGTA | 0.19 kcal/mol
TGTGCCACGTGTAGGG | -0.03 kcal/mol
GTGATCACGTGGTGTC | -0.01 kcal/mol
AAGAGCACGTGAAGTT | 0.23 kcal/mol
GGGGGCACGTGATCTA | -0.05 kcal/mol
GGGTACACGTGGGACG | -0.04 kcal/mol
GATTTCACGTGATGAG | 0.35 kcal/mol
GTTGACACGTGTTATC | 0.18 kcal/mol
ATTAACACGTGTTATT | 0.06 kcal/mol
TAGTTCACGTGCTTGT | 0.2 kcal/mol

Sequence | relative binding free energy
TGCTGCACGTGGCGGT | -0.24 kcal/mol
CATTGCACGTGTTAGG | -0.14 kcal/mol
AGGGGCACGTGATATG | 0.03 kcal/mol
ACGTTCACGTGTGGAT | 0.16 kcal/mol
TGATTCACGTGGCGAA | 0.29 kcal/mol
TGGGTCACGTGTTTTG | 0.16 kcal/mol
TTTTCCACGTGATTGT | 0.03 kcal/mol
GTGTTCACGTGGAATG | 0.3 kcal/mol
CGGACCACGTGGTGGT | -0.15 kcal/mol
AGTATCACGTGAGGTT | 0.38 kcal/mol
GAGTGCACGTGGGCAT | -0.1 kcal/mol
GGAGACACGTGAGTAG | 0.28 kcal/mol
GCATGCACGTGGAGGT | 0.15 kcal/mol
GGGCACACGTGTAAGT | 0.05 kcal/mol
GGCGACACGTGTAGGG | 0.07 kcal/mol
ATGGTCACGTGGATTT | 0.2 kcal/mol
GAAGTCACGTGGGTAA | -0.02 kcal/mol
GTAAACACGTGTGGAG | 0.02 kcal/mol
TCGTGCACGTGTTGCT | -0.02 kcal/mol
TGTTGCACGTGTCCGT | -0.22 kcal/mol
AATGTCACGTGGGGCA | -0.18 kcal/mol
